Laboratory results taken from ChEMBL document CHEMBL1201862, “PubChem BioAssay data set” (2004).

What follows are compounds tested on NCI-H322M (assay: NCI-60 cell line screen, 48 h).
With O=C1C2CN(Cc3ccccc3)CC1CN(CC1CC1)C2 the GI50 was inactive: > 100 µM. With CC(=O)Nc1ccc2c(c1)[nH]c(=O)c1cc(Cl)ccc12 the GI50 was inactive: 23 µM. COc1ccc2[nH]c(Cl)c(/C=C3/C(=O)N(c4ccccc4)c4ccccc43)c2c1 was tested, and the GI50 was inactive: 19.9 µM. With CCNc1cnc2c(n1)c(=O)n(C)c(=O)n2C the GI50 was inactive: > 100 µM. In the case of O=C(O)C(CS)NCc1c2ccccc2nc2ccccc12 (stereo unspecified), the GI50 is reported as inactive: 69.5 µM. In the case of C=C1C(=O)C23C(O)CC4C(C)(C)CCC(O)C4(C)C2CC(OC(C)=O)C1[C@H]3O (stereo partly specified), the GI50 is reported as inactive: 11.1 µM. In the case of CCN(CC)S(=O)(=O)c1ccc2[nH]c(NC(=O)OC)nc2c1, the GI50 is reported as inactive: > 100 µM. With CC(=O)N1CN2C(=O)CCC2c2ccccc21 (stereo unspecified) the GI50 was inactive: > 100 µM. O=C1Nc2ccccc2/C1=N/Nc1nc(-c2ccc(Br)cc2)cs1 was tested, and the GI50 was inactive: 34.5 µM. For CC1(C)CN=C(Nc2cccc(C(F)(F)F)c2)S1, the GI50 was inactive: > 100 µM. In the case of Cc1ccc2nc(NC(=O)C(=O)C(C(=O)c3ccc4ccccc4c3)C3OC(=O)c4ccccc43)sc2c1 (stereo unspecified), the GI50 is reported as inactive: 8.45 µM. With NC(=O)c1cnc2sc3ccccc3n2c1=O the GI50 was inactive: > 100 µM. In the case of O=C1c2cc3c(cc2CC12Cc1ccc4c(c1C2=O)CCC4)CCCC3 (stereo unspecified), the GI50 is reported as inactive: > 100 µM. With O=C(CC(=O)N(C(=O)c1ccccc1)c1ccc(Cl)cc1)N/N=C\c1ccccc1O the GI50 was inactive: > 100 µM. In the case of CC1=CC(C/C(C)=C/COc2ccc3ccc(=O)oc3c2)OC1=O (stereo unspecified), the GI50 is reported as inactive: > 100 µM. In the case of CC(=O)O[C@H]1C[C@H]2[C@@H](OC(C)=O)/C=C3\C[C@](C)(C(=O)[C@H](O)C(=C1C)C2(C)C)[C@@H](O)C[C@@H]3OC(=O)[C@H](O)[C@H](c1ccccc1)N(C)C, the GI50 is reported as inactive: > 100 µM. N/N=C1\C(=O)N(c2ccc(Cl)cc2Cl)C(=O)C(=O)C1c1nc2ccccc2o1 (stereo unspecified) was tested, and the GI50 was inactive: > 100 µM. In the case of O=C1CCCC2=C(N1)C(=O)C=CC2=O, the GI50 is reported as inactive: > 64.1 µM. With O=C1CNS(=O)(=O)N1 the GI50 was inactive: > 100 µM. In the case of C[C@H]1ON2CCC[C@@H]2[C@@H]1C(=O)N1C2CC3CCC2(CS1(=O)=O)C3(C)C (stereo partly specified), the GI50 is reported as inactive: > 100 µM. With CCN(C(=O)N[C@H](C(=O)N[C@@H](CSC)C(=O)N[C@@H](C)C(=O)OC)C(C)C)c1ccccc1 the GI50 was inactive: 15.8 µM. In the case of O=C(/C=C/c1ccc2c(c1)OCO2)CC(=O)/C=C/c1ccc2c(c1)OCO2, the GI50 is reported as inactive: > 100 µM. In the case of Cc1[nH]c2ccccc2c1-c1n[nH]c(=O)c2ccccc12, the GI50 is reported as inactive: 26.7 µM. CSCCC(N)C(=O)NCCNc1ccc(NCCNC(=O)C(N)CCSC)c2c1C(=O)c1ccccc1C2=O (stereo unspecified) was tested, and the GI50 was active: 0.923 µM. In the case of O=C1CSC(c2ccccc2[N+](=O)[O-])N1c1ccc(-n2c(-c3ccccc3)nc3ccccc3c2=O)cc1 (stereo unspecified), the GI50 is reported as inactive: 89.9 µM. For COc1ccc(N/N=C(\CCN(C)C)c2ccccc2)cc1, the GI50 was inactive: 11.4 µM. For C/C(=N\N=C(\N)S)c1ccc(Oc2ccccc2)cc1, the GI50 was inactive: 15.3 µM. With COc1ccc(OC)c(C2Cc3cnc4nc(N)nc(N)c4c3C2)c1 (stereo unspecified) the GI50 was inactive: 22.9 µM. For CC1(C)C2CCC3(OCCO3)C1C(O)C2 (stereo unspecified), the GI50 was inactive: > 100 µM. With Nc1ccc(C(=O)/C=C/c2ccccc2O)cc1 the GI50 was inactive: > 100 µM. For O=c1oc2ccccc2c(Nc2ccc3c(c2)Sc2ccccc2O3)c1[N+](=O)[O-], the GI50 was inactive: 22.2 µM. With COc1ccccc1NC(=O)C1=C(C)NC(C)=C(C(=O)Nc2ccccc2OC)C1c1ccc(C2C(C(=O)Nc3ccccc3OC)=C(C)NC(C)=C2C(=O)Nc2ccccc2OC)cc1 the GI50 was inactive: 3.23 µM. In the case of COc1ccc(NC(=O)C(=O)Cc2nc3ccc(C(=O)c4ccccc4)cc3nc2O)c([N+](=O)[O-])c1, the GI50 is reported as inactive: 30.5 µM. With NC(=O)NC(CC(=O)O)C(=O)O (stereo unspecified) the GI50 was inactive: > 100 µM. For CC1(C)CC(C2CC(C)(C)CC(C)(C)[C@H]2O)[C@@H](O)C(C)(C)C1 (stereo partly specified), the GI50 was inactive: > 100 µM. With O=c1oc2ccc([N+](=O)[O-])cc2c(Nc2ccc3c(c2)S(=O)(=O)c2ccccc2O3)c1[N+](=O)[O-] the GI50 was inactive: 88.7 µM. Cc1c2ccnc(O)c2cc2c(=O)c3cnccc3[nH]c12 was tested, and the GI50 was inactive: > 100 µM. In the case of Cc1cc(OC(=O)c2c(C)cc(OC(=O)c3c(C)cc(O)cc3O)cc2O)cc(O)c1C(=O)O [GYROPHORIC ACID], the GI50 is reported as inactive: > 100 µM. With CCOC(=O)CCC(NC(=O)C(N)Cc1ccc(N(CCCl)CCCl)cc1)C(=O)OCC (stereo unspecified) the GI50 was inactive: 7.76 µM. In the case of O=S(=O)(c1ccccc1)n1c2ccc(Br)cc2c2nc3ccccc3nc21, the GI50 is reported as inactive: > 100 µM. For CCOC(=O)C1=C(c2ccccc2)N(C(C)=O)Cc2ccccc21, the GI50 was inactive: 21.5 µM. N#Cc1sc2c(c1O)c(=O)n(-c1ccccc1)c(=S)n2-c1ccccc1 was tested, and the GI50 was inactive: > 100 µM. In the case of COc1cc(Br)c(CC2=NCCc3cc(OC)c(OC)cc32)cc1OC, the GI50 is reported as inactive: 87.1 µM. Cc1[nH]c2ccccc2c1C(=O)CC1(O)C(=O)Nc2c(Cl)cc(Cl)cc21 (stereo unspecified) was tested, and the GI50 was inactive: 54.8 µM. In the case of C/C(CC(O)(C(F)(F)F)C(F)(F)F)=N\N, the GI50 is reported as inactive: > 10 µM. For COC(=O)[C@]1(c2cc3ccccc3[nH]2)CC2CN(CC(=O)N(C)OC)C1CC2(OC)OC (stereo partly specified), the GI50 was inactive: > 100 µM. In the case of O=C1C(c2c(O)[nH]c3ccc(Cl)cc23)=Nc2ccccc21, the GI50 is reported as inactive: 4.1 µM. COc1cc(/C=C2\N=C(c3ccccc3)N(c3nc4c(Cl)cc(Cl)cc4s3)C2=O)ccc1O was tested, and the GI50 was inactive: 38.8 µM. For Nn1c(-c2ccccc2)nn(C(=O)c2ccccc2)c1=O, the GI50 was inactive: > 100 µM. With CCn1c2c(c3c(C(=O)OC)c(O)ccc31)C(=O)c1ccccc1C2=O the GI50 was inactive: 26.9 µM. With COc1ccc(/C=C2\CCc3cc(OC)c(OC)cc3C2=O)cc1 the GI50 was inactive: > 10 µM. In the case of CCC1(O)CC2CC(=O)OC2C1O (stereo unspecified), the GI50 is reported as inactive: > 100 µM. COc1ccc(OC)c(N2C(=O)/C(=C\c3ccccc3)SC2c2cc(OC)c(OC)c(OC)c2)c1 (stereo unspecified) was tested, and the GI50 was inactive: > 100 µM. For COc1ccc2c(c1)nc1n2C(c2c(F)cccc2Cl)SC1 (stereo unspecified), the GI50 was inactive: 22.6 µM. For COc1ccc2nc3cc(Cl)ccc3c(NCCNC(=O)Cn3c(=O)n(C)c(=O)c4c3nc3c(c(=O)n(C)c(=O)n3C)[n+]4[O-])c2c1, the GI50 was inactive: 37 µM. For O=C(O)C1C2OC(C(Br)C2Br)C1C(=O)O (stereo unspecified), the GI50 was inactive: > 100 µM. In the case of COc1ccccc1N/C(=C\C(=O)C(=O)NC12CC3CC(CC(C3)C1)C2)c1ccccc1, the GI50 is reported as inactive: > 10 µM. In the case of CSc1[nH]nc(N)c1C(=O)Nc1ccccc1, the GI50 is reported as inactive: > 100 µM. For COc1cccc(N2N=C3c4ccccc4-n4c(nc5ccccc54)C3C2N)c1 (stereo unspecified), the GI50 was inactive: > 100 µM. CS(=O)(=O)C1(Br)S(=O)(=O)OCCOS1(=O)=O was tested, and the GI50 was inactive: > 100 µM. For Cn1c(=O)c2nc(CCNC(=O)c3ccccc3)[nH]c2n(C)c1=O, the GI50 was inactive: > 100 µM. In the case of Clc1ccc(COC(Cn2ccnc2)c2ccc(Cl)cc2Cl)cc1 (stereo unspecified) [ECONAZOLE], the GI50 is reported as inactive: 12.6 µM. In the case of COc1cc(N(C)C)c(OC)cc1C=C1C=CC=C1, the GI50 is reported as inactive: > 100 µM. For CSc1nc(NC(=O)O)c(N(C(C)=O)C(=O)O)c(=O)n1C, the GI50 was inactive: > 100 µM. In the case of COc1ccc(C)cc1-c1ccc(-c2cc(C)ccc2OC)o1, the GI50 is reported as inactive: > 100 µM. In the case of Cc1csc2nc(-c3cccc([N+](=O)[O-])c3)c(/C=N/N=C(N)N)n12, the GI50 is reported as inactive: 1.57 µM. In the case of O=C1C=C2CCCC2C(C(=O)O)(C(=O)O)C1 (stereo unspecified), the GI50 is reported as inactive: > 100 µM. CCCC(=O)Nc1cc(/C=C/C(=O)N2CC(CCl)c3ccc(N)cc32)n(C)c1 (stereo unspecified) was tested, and the GI50 was active: 0.264 µM. For C/C(=N\NC(=S)NC1CCCC1)c1ccccn1, the GI50 was active: < 0.02 µM. For Cc1nc2c(o1)/C(=N\c1ccccc1)c1ccccc1C2=O, the GI50 was inactive: 15 µM. N#Cc1c(-c2nc3ccccc3s2)c(=O)oc2cc(O)ccc12 was tested, and the GI50 was inactive: 31 µM. In the case of COC(=O)/C1=C/C2CC(/C=C(/c3ccccc3)C(=O)O1)C2, the GI50 is reported as inactive: 34.3 µM. In the case of COc1ccccc1-n1nnc2c(N)nc(N)nc21, the GI50 is reported as inactive: > 100 µM. In the case of CC1(C)CC(=O)C(/C(=N/NC(=S)NN)C(=O)Nc2nc3ccc([N+](=O)[O-])cc3s2)C(=O)C1, the GI50 is reported as inactive: > 100 µM. For NC1=NN(c2ccccc2)C(=O)C1C(=O)C(=O)Nc1nccs1 (stereo unspecified), the GI50 was inactive: > 100 µM. In the case of CC(NC1=CC(=O)c2ncccc2C1=O)C(O)c1ccccc1 (stereo unspecified), the GI50 is reported as inactive: 5.79 µM. With Clc1cc2ncn(C3CCCCO3)c2cc1Cl (stereo unspecified) the GI50 was inactive: 96.4 µM. With CN(C)Cc1cc(/N=N/c2ccc(Cl)cc2)ccc1O the GI50 was inactive: 19.1 µM. NC1CNC(=O)c2cscc21 (stereo unspecified) was tested, and the GI50 was inactive: > 100 µM. With O=[N+]([O-])/C(C(Cl)=C(Cl)Cl)=C1\Nc2ccccc2O1 the GI50 was inactive: > 100 µM. In the case of CCOC(=O)C(=O)Nc1c(C(C)C)cccc1C(C)C, the GI50 is reported as inactive: > 100 µM. In the case of CC(=O)O[C@H]1C=CC(=O)C(C)CC1C (stereo partly specified), the GI50 is reported as inactive: > 100 µM. With CN1C(=O)c2ccccc2C(O)(c2ccccc2)C1(O)c1ccccc1 (stereo unspecified) the GI50 was inactive: > 100 µM. CC(C)(C)OC(=O)NCCNCCNc1ccccc1 was tested, and the GI50 was inactive: > 100 µM. For NC(=O)Nc1ccc(S(=O)(=O)Nc2ccc(S(N)(=O)=O)cc2)cc1, the GI50 was inactive: > 100 µM. For O=C1c2cccnc2-c2nccc3c2c1nc1cc(Br)ccc13, the GI50 was active: 0.0776 µM. In the case of O=C(Cc1ccccc1)N/N=C(/c1nc2ccc([N+](=O)[O-])cc2nc1O)C(O)c1ccccc1Cl (stereo unspecified), the GI50 is reported as inactive: > 100 µM. With Cc1cc2[n-][n+]3ncc(-c4ccccc4)n3c2cc1[N+](=O)[O-] the GI50 was inactive: > 100 µM. For CCC1CN2CCc3cc(OC)c(OC)cc3C2CC1CC1c2cc(OC)c(OC)cc2CCN1C(=O)C1CCCN1C(=O)OCc1ccccc1 (stereo unspecified), the GI50 was inactive: 22.5 µM. In the case of Cc1ccc(C2=Nc3ccccc3NC(=O)C2)cc1, the GI50 is reported as inactive: > 100 µM. For CC1(CF)SCc2nc3ccccc3n21 (stereo unspecified), the GI50 was inactive: > 100 µM. With Cc1c(O)c(=O)ccn1CCO the GI50 was inactive: > 100 µM. In the case of COC(=O)c1nc2n(n1)-c1ccccc1C(=O)N(Cc1ccccc1)C2, the GI50 is reported as inactive: 36.1 µM. In the case of CCCCCCCCCCCCCC(=O)OC1CC(=O)OC1CO (stereo unspecified), the GI50 is reported as inactive: > 100 µM. With C/C(COc1ccccc1)=N\NC(N)=S the GI50 was inactive: > 100 µM. For Cc1cc(NC(=S)Nc2ccccc2)c(NC(=S)Nc2ccccc2)cc1C, the GI50 was inactive: 34.2 µM.

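Tested at 5 concentrations; 48 h exposure; 96-well plates; endpoints linearly interpolated, else capped at highest concentration. GI50: concentration for 50% inhibition of growth.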 Active and inactive are the calls of the source. No stated cut-off is given here; in the data, active = GI50 up to about 1.1 µM and inactive = higher.
